# Assay results as given in PubChem BioAssay AID662 (National Center for Advancing Translational Sciences (NCATS), 2007).
# The whole screen tested about 71,000 compounds, of which about 1,800 (2.5%) were called active. The inconclusive results got no clear call from the source; some entries with a clear call stand among them for comparison. The call rests on the fitted dose curve; in most records, active means well fitted activation curve with a large enough effect in the signal ratio, with a control signal flat (not every such curve was filed as active); inconclusive means small, poorly fitted or top-dose-only effect, or effect the other way, or a change in a side signal; inactive means flat fitted curve, though single readings scatter; the % refers to the signal ratio. A potency beside an inconclusive call is a rough fit, not a confirmed value.
# Experiment: Cell signaling CRE-BLA (Fsk stim); on activity change, negative = inhibition: % of control where 0% means no effect
# Conditions: CHO CRE-bla reporter (cAMP response element driving beta-lactamase), forskolin EC10, beta-lactamase ratio; activity change, negative = inhibition: at 38.2 µM (top of the series) unless noted
# Outline: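 Titrated compounds plus EC10 NKH 477 on CHO CRE-bla cells, 3 h, 37 °C. CCF4, 2 h RT. Ratio 460/530 nm → AC50.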
# Potency means the concentration at half of the fitted maximal effect; tags describe the fitted curve by direction and shape.
Compound,"activity change, negative = inhibition",Potency
O=C1c2ccccc2N[C@H](c2cc(Cl)cc(Cl)c2O)N1CCc1ccccn1,inactive: 3.13% [at 7.6 µM],–
CCNc1ncc2ncc(=O)n(C)c2n1,inconclusive: 27.8%,–
Nc1cc(Cl)c(NC2=NCCN2)c(Cl)c1,–,"inconclusive: 31.6 µM [rising, single point]"
O=C(NCCCN1CCCCC1)c1ccc2c(c1)NC(=O)C(N1CCCCC1)S2 (stereo unspecified),inconclusive: -1.1%,–
N#CC1=C(N)C(C#N)(C#N)[C@H](c2ccncc2)[C@H]2CC3(CC=C12)OCCO3,inactive: -11.9%,–
CCOC(=O)c1c2c(n3ccccc13)C(=O)c1ccccc1C2=O,–,"inconclusive: 5.01 µM [rising, single point]"
COc1ccc(-c2cc(=O)oc3cc(OCc4nn[nH]n4)ccc23)cc1,inactive: -8.9%,–
CC(C)c1ccc(-c2noc(C3CCCN(C(=O)c4ccc(F)cc4F)C3)n2)cc1 (stereo unspecified),inconclusive: -15.2%,–
O=C(NCC(c1cccnc1)N1CCN(c2ccc(F)cc2)CC1)c1cccc(Cl)c1 (stereo unspecified),–,"inconclusive: 0.158 µM [falling, full curve, poor fit]"
CCCCOC(=O)n1c(SCC(=O)N(C)C)nc2ccccc21,–,"inconclusive: 15.8 µM [rising, partial curve]"
CC(C)COC(=O)C1C(=O)CC(C)(O)C(C(=O)OCC(C)C)C1c1cccnc1 (stereo unspecified),inconclusive: 3.3%,–
CC(C)N1CC(C(=O)Nc2nc3ccccc3s2)CC1=O (stereo unspecified),–,"inconclusive: 25.1 µM [rising, single point]"
O=c1[nH]c(CSc2nnc(NCCCN3CCOCC3)s2)nc2cc(Cl)ccc12,inconclusive: 8.32%,–
CCc1nnc(NC(=O)CN2CCC(O)(c3ccccc3OC)CC2)s1,inconclusive: 5.21%,–
Cc1cc(S(=O)(=O)N2CCOCC2)ccc1F,inconclusive: 3.15%,–
CC1CCN(c2nc3c(c(=O)[nH]c(=O)n3C)n2Cc2ccccc2Cl)CC1,–,"inconclusive: 15.8 µM [rising, single point]"
Cc1cc2c(c(=O)n1Cc1ccc3c(c1)OCO3)C(c1cccnc1)C(C#N)=C(N)O2 (stereo unspecified),–,"inconclusive: 12.6 µM [rising, single point]"
COc1cc(OC)cc(C(=O)N2CCC(n3c(C)nc4cc(F)ccc43)CC2)c1,–,"inconclusive: 10 µM [rising, partial curve]"
CCN1CCN(c2nc3c(c(=O)n(C)c(=O)n3C)n2Cc2cccc3ccccc23)CC1,inconclusive: 11.4%,–
CC1(C)c2ccccc2N2CCC(=O)NC21/C=C/c1ccco1 (stereo unspecified),inactive: -8.14%,–
CC1CCN(C(=O)CCCOc2cc(=O)n(C)c3ccccc23)CC1,–,"inconclusive: 10 µM [rising, partial curve]"
